Measurements from article PMC3656144.
Results are given in words; binding and its absence hold for the method and conditions named. Binding seen in cells or lysates may run through a third protein. Some binding calls cover weakened binding; strength is not graded here. Sequences can lack the tags named with a protein.

How the values were obtained:
DPY-23::GFP (C. elegans) = target: T1, DPY-23::GFP (C. elegans) (UniProt P35603); experiment: co-IP; IP with GFP antibody from lysates of animals co-expressing an mCherry fusion and a GFP fusion (control: mCherry fusion alone); blots with mCherry and GFP antibodies
T1 sequence: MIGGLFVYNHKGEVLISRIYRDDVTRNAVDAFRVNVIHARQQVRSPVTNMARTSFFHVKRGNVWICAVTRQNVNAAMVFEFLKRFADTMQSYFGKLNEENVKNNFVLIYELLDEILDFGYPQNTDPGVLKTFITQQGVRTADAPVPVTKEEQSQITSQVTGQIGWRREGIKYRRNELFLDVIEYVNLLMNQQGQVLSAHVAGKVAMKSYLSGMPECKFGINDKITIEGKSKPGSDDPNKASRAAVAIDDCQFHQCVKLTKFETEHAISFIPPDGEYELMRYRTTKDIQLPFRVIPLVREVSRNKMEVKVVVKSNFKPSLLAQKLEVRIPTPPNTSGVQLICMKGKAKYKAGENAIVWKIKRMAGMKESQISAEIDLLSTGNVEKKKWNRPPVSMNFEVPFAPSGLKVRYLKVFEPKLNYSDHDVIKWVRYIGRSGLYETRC

APA-2::GFP (C. elegans) = target: T2, APA-2::GFP (C. elegans) (UniProt Q22601); experiment: as above
T2 sequence: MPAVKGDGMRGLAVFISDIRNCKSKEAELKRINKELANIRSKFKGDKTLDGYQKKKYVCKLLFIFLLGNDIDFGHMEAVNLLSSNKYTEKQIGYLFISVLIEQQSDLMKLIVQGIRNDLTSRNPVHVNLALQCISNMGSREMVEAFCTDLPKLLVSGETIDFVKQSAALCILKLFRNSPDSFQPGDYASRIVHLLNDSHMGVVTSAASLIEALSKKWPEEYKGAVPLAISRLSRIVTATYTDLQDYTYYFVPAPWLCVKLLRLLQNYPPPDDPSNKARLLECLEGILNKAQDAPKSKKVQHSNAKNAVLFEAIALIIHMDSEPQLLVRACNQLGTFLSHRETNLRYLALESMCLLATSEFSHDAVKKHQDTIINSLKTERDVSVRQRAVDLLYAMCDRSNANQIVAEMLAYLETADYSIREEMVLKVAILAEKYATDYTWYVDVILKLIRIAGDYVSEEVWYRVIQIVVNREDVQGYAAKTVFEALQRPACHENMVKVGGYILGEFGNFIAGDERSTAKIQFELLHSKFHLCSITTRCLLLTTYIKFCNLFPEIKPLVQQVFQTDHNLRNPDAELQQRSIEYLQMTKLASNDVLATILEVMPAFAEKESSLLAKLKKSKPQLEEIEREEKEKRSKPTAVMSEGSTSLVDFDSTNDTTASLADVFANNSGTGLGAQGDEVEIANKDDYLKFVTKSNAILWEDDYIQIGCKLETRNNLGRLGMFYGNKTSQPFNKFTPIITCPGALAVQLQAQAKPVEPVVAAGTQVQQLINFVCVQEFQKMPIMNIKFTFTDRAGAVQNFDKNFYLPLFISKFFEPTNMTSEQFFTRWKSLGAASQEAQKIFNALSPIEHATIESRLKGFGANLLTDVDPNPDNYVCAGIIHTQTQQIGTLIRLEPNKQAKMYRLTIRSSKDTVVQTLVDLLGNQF

binding (DPY-23::GFP (C. elegans)): binds
binding (APA-2::GFP (C. elegans)): binds
B1: LST-4::mCherry (protein, UniProt Q8I4E2 1-566)
chain: MAQVKAEYDFQSQPNTGELSISAGEVLTVIRENIDGGWIEGRNVRGSVGLFPESYVTPYQASRPPPVLPPPLPPTSSGPPAASSRPFDDWGGASEVAAPPSYGAQHHHQPTPSVPEVTRSSYPSQNDDFDDEWTDEDDEQEPTRPNVQSSIGSNSRRDLSRSHSEHGGPDRGSNKVNKNINRFSNFVKSGVEAYVIGESKTTSQISERHEVVMNNGIIQWKPIQQYYTCIVDKPKKESKLKGLKSFIAYSITSSLTNIQRQVSRRYKHFDWLHEQLSAKYVLIPIPPLPEKQVAGRYEEDLIDHRKHILQLWVNKICRHPVLSQSEVWLHFISCTDEKDWKNGKRRAEKDEYIGGAFLNCITVPHQPLDPNNVDMQVERFQRSVKTSEEAMRVMQERMNMFQKVFAGPVKQNWQKMGSAFKTLQQSFEIDETVASRRLTEALAYTASEYHEIGQVFDAHTKNDMEPVLENLYSYKGTVQNVPDIIQVHKQAVQKFRDSEGRLSSAEAEKMKQRIDAMSYTVIAEVQHQTAEKVEDMKSTMGTYLKKQAMFYQEVATKLTSLAARYD
